Hit rate of the full screen: of about 3,200 compounds, about 75 (2%) showed an effect of 50% or more. The list shows a part of the results.
System: T1, S. aureus MSSA476
T1 construct: MSSA476
Parameters: species or system S. aureus MSSA476 (TSB) or V. cholerae SAD30 (LB); 384-well bacterial growth screen at 25 uM, OD600 relative to DMSO control
Settings: relative growth, OD600, TSB; 25 µM; inhibitor

Row | Structure (SMILES) | % of control remaining [%]
1 | N#CC(=Cc1cc2ccccc2o1)C(=O)NCc1ccco1 [9-O08, 3-(1-benzofuran-2-yl)-2-cyano-N-[(furan-2-yl)methyl]prop-2-enamide] | 115.056
2 | O=C(CCl)NC1CCCOc2c(F)cccc21 (stereo not shown) [7-B14, 2-chloro-N-(9-fluoro-2,3,4,5-tetrahydro-1-benzoxepin-5-yl)acetamide] | 82.2606
3 | Cc1ccc(NC(=O)C(C#N)=Cc2ccc(OC(F)F)cc2)c(C)c1 [9-G19, 2-cyano-3-[4-(difluoromethoxy)phenyl]-N-(2,4-dimethylphenyl)prop-2-enamide] | 65.618
4 | C=CC(=O)NCCN1C(=O)COc2ccccc21 [2-P07, N-[2-(3-oxo-3,4-dihydro-2H-1,4-benzoxazin-4-yl)ethyl]prop-2-enamide] | 93.2985
5 | CN1C(=C(C#N)C(=O)CCl)N(C)c2ccccc21 [10-P18, 4-chloro-2-(1,3-dimethyl-2,3-dihydro-1H-1,3-benzodiazol-2-ylidene)-3-oxobutanenitrile] | 103.75
6 | C=CC(=O)NCCC(=O)NC1CCSc2ccc(F)cc21 (stereo not shown) [3-D08, N-{2-[(6-fluoro-3,4-dihydro-2H-1-benzothiopyran-4-yl)carbamoyl]ethyl}prop-2-enamide] | 94.0357
7 | C=CC(=O)NC1(Cn2cccn2)CC(F)(F)C1 [2-J17, N-{3,3-difluoro-1-[(1H-pyrazol-1-yl)methyl]cyclobutyl}prop-2-enamide] | 103.394
8 | CC1CCN(C(=O)CCl)c2cc(C(F)(F)F)ccc2S1 (stereo not shown) [5-J07, 2-chloro-1-[2-methyl-7-(trifluoromethyl)-2,3,4,5-tetrahydro-1,5-benzothiazepin-5-yl]ethan-1-one] | 106.011
9 | O=C(CCl)Nc1ccc(Cl)c(C(F)(F)F)c1 [4-I09, 2-chloro-N-[4-chloro-3-(trifluoromethyl)phenyl]acetamide] | 81.5626
10 | CCc1cccc(NC(=O)CCl)c1 [4-F04, 2-chloro-N-(3-ethylphenyl)acetamide] | 88.8042
11 | C=CC(=O)N1CCC(C(=O)NC(C)(c2noc(C)n2)C2CC2)CC1 (stereo not shown) [2-B10, N-[1-cyclopropyl-1-(5-methyl-1,2,4-oxadiazol-3-yl)ethyl]-1-(prop-2-enoyl)piperidine-4-carboxamide] | 107.92
12 | C=CC(=O)NCC1CCCCN1S(C)(=O)=O (stereo not shown) [1-D17, N-[(1-methanesulfonylpiperidin-2-yl)methyl]prop-2-enamide] | 114.989
13 | CC(Cl)C(=O)N(C)C1CS(=O)(=O)c2ccc(Cl)cc21 (stereo not shown) [7-M14, 2-chloro-N-(5-chloro-1,1-dioxo-2,3-dihydro-1lambda6-benzothiophen-3-yl)-N-methylpropanamide] | 73.7834
14 | C=CC(=O)Nc1c(C)ccc(Cl)c1CO [1-O03, N-[3-chloro-2-(hydroxymethyl)-6-methylphenyl]prop-2-enamide] | 98.4615
15 | CC(C)N(Cc1ccc(N(C)C)cc1)C(=O)CCl [5-E06, 2-chloro-N-{[4-(dimethylamino)phenyl]methyl}-N-(propan-2-yl)acetamide] | 95.4463
16 | COc1ccc(C=C(C#N)C(=O)NCc2ccco2)cc1 [8-J12, 2-cyano-N-[(furan-2-yl)methyl]-3-(4-methoxyphenyl)prop-2-enamide] | 136.432
17 | COc1cc(C=C(C#N)C(=O)Nc2cccc3ncccc23)ccc1O [9-F22, 2-cyano-3-(4-hydroxy-3-methoxyphenyl)-N-(quinolin-5-yl)prop-2-enamide] | 96.779
18 | O=C(CCl)NC(c1ccc(F)cc1)c1cccs1 (stereo not shown) [4-K18, 2-chloro-N-[(4-fluorophenyl)(thiophen-2-yl)methyl]acetamide] | 119.295
19 | CCCCNC(=O)C(C#N)=Cc1ccc(F)cc1F [8-H14, N-butyl-2-cyano-3-(2,4-difluorophenyl)prop-2-enamide] | 87.9668
20 | CSc1cccc(-n2c(C)cc(C(=O)CCl)c2C)c1 [10-J16, 2-chloro-1-{2,5-dimethyl-1-[3-(methylsulfanyl)phenyl]-1H-pyrrol-3-yl}ethan-1-one] | 12.8125
21 | C=CC(=O)N(CC)c1cccc(C)c1 [1-A10, N-ethyl-N-(3-methylphenyl)prop-2-enamide] | 107.253
22 | C=CC(=O)NC1c2cccc(F)c2CCC1C (stereo not shown) [1-B21, N-(5-fluoro-2-methyl-1,2,3,4-tetrahydronaphthalen-1-yl)prop-2-enamide] | 123.429
23 | CC(Cl)C(=O)N1CCCC1c1cccc2c1OCCO2 (stereo not shown) [7-L11, 2-chloro-1-[2-(2,3-dihydro-1,4-benzodioxin-5-yl)pyrrolidin-1-yl]propan-1-one] | 83.5165

Row | Structure (SMILES) | % of control remaining [%]
24 | CC1CN(Cc2ccccc2)CC(C)N(C(=O)C(C)Cl)C1 (stereo not shown) [5-B21, 1-(4-benzyl-2,6-dimethyl-1,4-diazepan-1-yl)-2-chloropropan-1-one] | 97.6321
25 | O=C(CCl)c1cc(Cl)ccc1Cl [10-E16, 2-chloro-1-(2,5-dichlorophenyl)ethan-1-one] | 80
26 | CC(Cl)C(=O)N[C@H](C)c1cnnn1C (stereo partly drawn) [6-D13, 2-chloro-N-[(1R)-1-(1-methyl-1H-1,2,3-triazol-5-yl)ethyl]propanamide] | 89.122
27 | CC(Cl)C(=O)NC(Cc1ccccc1)c1ncco1 (stereo not shown) [7-E12, 2-chloro-N-[1-(1,3-oxazol-2-yl)-2-phenylethyl]propanamide] | 110.518
28 | O=C(CCl)NCCc1ccc2c(c1)OCCO2 [4-N11, 2-chloro-N-[2-(2,3-dihydro-1,4-benzodioxin-6-yl)ethyl]acetamide] | 99.8571
29 | CC(Cl)C(=O)NC(Cn1cncn1)c1ccccc1 (stereo not shown) [7-M09, 2-chloro-N-[1-phenyl-2-(1H-1,2,4-triazol-1-yl)ethyl]propanamide] | 75.3532
30 | C=CC(=O)NC(C)c1cnc(C(F)(F)F)s1 (stereo not shown) [2-A05, N-{1-[2-(trifluoromethyl)-1,3-thiazol-5-yl]ethyl}prop-2-enamide] | 119.06
31 | O=C(CCl)NCC12CCCCC1C2(F)F (stereo not shown) [5-C18, 2-chloro-N-({7,7-difluorobicyclo[4.1.0]heptan-1-yl}methyl)acetamide] | 117.668
32 | C=CC(=O)Nc1ccnn1Cc1cccc(Cl)c1 [1-N14, N-{1-[(3-chlorophenyl)methyl]-1H-pyrazol-5-yl}prop-2-enamide] | 96
33 | Cc1ccc(NC(=O)C(C#N)=Cc2cccs2)c(C)c1 [8-D15, 2-cyano-N-(2,4-dimethylphenyl)-3-(thiophen-2-yl)prop-2-enamide] | 115.519
34 | N#CC(=Cc1cccs1)C(=O)Nc1ccc(F)cc1 [8-F10, 2-cyano-N-(4-fluorophenyl)-3-(thiophen-2-yl)prop-2-enamide] | 95.6017
35 | Cc1ccc(NC(=O)N2CCN(C(=O)C(C)Cl)CC2)cc1Cl (stereo not shown) [7-A21, N-(3-chloro-4-methylphenyl)-4-(2-chloropropanoyl)piperazine-1-carboxamide] | 92.9356
36 | N#CC(=Cc1ccc2c(c1)OCO2)C(=O)NCc1ccco1 [9-A15, 3-(1,3-dioxaindan-5-yl)-2-cyano-N-[(furan-2-yl)methyl]prop-2-enamide] | 90.7865
37 | C=CC(=O)NCc1ccccc1CN1C(=O)NC2(CCCCC2)C1=O [2-O11, N-{[2-({2,4-dioxo-1,3-diazaspiro[4.5]decan-3-yl}methyl)phenyl]methyl}prop-2-enamide] | 95.7354
38 | C=CC(=O)Nc1ccnc(OC)c1 [2-F21, N-(2-methoxypyridin-4-yl)prop-2-enamide] | 114.534
39 | CCNC(=O)C(C#N)=Cc1ccc(O)c(OCC)c1 [8-O09, 2-cyano-3-(3-ethoxy-4-hydroxyphenyl)-N-ethylprop-2-enamide] | 121.494
40 | O=C(CCl)c1ccccn1 [10-J03, 2-chloro-1-(pyridin-2-yl)ethan-1-one] | 51.875
41 | C=CC(=O)NC(C)c1nnnn1-c1ccccc1 (stereo not shown) [2-I11, N-[1-(1-phenyl-1H-1,2,3,4-tetrazol-5-yl)ethyl]prop-2-enamide] | 109.661
42 | C=CC(=O)NCC(=C)c1ccccc1 [2-B09, N-(2-phenylprop-2-en-1-yl)prop-2-enamide] | 128.808
43 | N#CC(=Cc1c[nH]c2ccccc12)C(=O)Nc1ccc2c(c1)OCCO2 [9-B07, 2-cyano-N-(2,3-dihydro-1,4-benzodioxin-6-yl)-3-(1H-indol-3-yl)prop-2-enamide] | 68.3146
44 | C=CC(=O)N1CCOCC2(CCOCC2)C1 [2-C10, 1-{3,8-dioxa-11-azaspiro[5.6]dodecan-11-yl}prop-2-en-1-one] | 136.815
45 | CC(Cl)C(=O)NC1Cc2ccccc2N(C(=O)C(F)(F)F)C1 (stereo not shown) [7-N19, 2-chloro-N-[1-(2,2,2-trifluoroacetyl)-1,2,3,4-tetrahydroquinolin-3-yl]propanamide] | 114.286
46 | C=CC(=O)NCC1(n2ccnn2)CC1 [2-L19, N-{[1-(1H-1,2,3-triazol-1-yl)cyclopropyl]methyl}prop-2-enamide] | 115.927

— paper PMC11995724, “Antibiotic target discovery by integrated phenotypic and activity-based profiling of electrophilic fragments” (Cell chemical biology, 2025)
